Assay results as given in US20160024176A1 (AstraZeneca / MedImmune, published 2016).

Legend:
human OX40 [1] = biological target: T1, human OX40 (human, UniProt P43489 29-277); assay: cell-based or functional assay
T1 sequence (looked up): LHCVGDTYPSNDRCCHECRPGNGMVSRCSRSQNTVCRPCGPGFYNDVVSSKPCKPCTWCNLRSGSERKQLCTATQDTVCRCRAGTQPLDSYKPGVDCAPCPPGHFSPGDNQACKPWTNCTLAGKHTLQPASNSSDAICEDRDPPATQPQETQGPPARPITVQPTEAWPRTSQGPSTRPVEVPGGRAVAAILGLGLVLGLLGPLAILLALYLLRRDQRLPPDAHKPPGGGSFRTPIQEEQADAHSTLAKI

human OX40 [2] = biological target: T1, human OX40; assay: cell-based or functional assay; remark: listed apart in the source
human OX40 [3] = biological target: T1, human OX40; assay: flow cytometry on activated primary human CD4+ T cells, Experiment #1
human OX40 [4] = biological target: T1, human OX40; assay: flow cytometry on activated primary human CD4+ T cells, Experiment #2
rhesus monkey OX40 [5] = biological target: T2, rhesus monkey OX40 (rhesus monkey); assay: flow cytometry on activated primary rhesus macaque CD4+ T cells, upper panel
T2 construct: also called rhesus macaque OX40

cynomolgus monkey OX40 [6] = biological target: T3, cynomolgus monkey OX40 (cynomolgus monkey); assay: flow cytometry on activated primary cynomolgus monkey CD4+ T cells, lower panel
T3 construct: also called cyno OX40

cynomolgus monkey OX40 [7] = biological target: T3, cynomolgus monkey OX40; assay: flow cytometry on activated primary cynomolgus monkey CD4+ T cells, upper panel
human OX40 [8] = biological target: T1, human OX40; assay: flow cytometry, equilibrium binding to activated primary human CD4+ T cells, mean ± SD of 6 donors
cynomolgus monkey OX40 [9] = biological target: T3, cynomolgus monkey OX40; assay: flow cytometry, equilibrium binding to activated primary cyno CD4+ T cells, mean ± SD of 2 experiments
rhesus monkey OX40 [10] = biological target: T2, rhesus monkey OX40; assay: flow cytometry, equilibrium binding to activated primary rhesus CD4+ T cells, mean ± SD of 2 experiments
[11] = biological target: T4, human complement protein C1q (human, UniProt P02745; P02746; P02747); assay: surface plasmon resonance (ProteOn XPR36), C1q injected over immobilised OX40L IgG4P Fusion Protein
T4 construct: mature; Printed as Clq in the text; also called Clq; complement component C1q

rat OX40 = biological target: T5, rat OX40 (rat, UniProt P15725 20-271); assay: flow cytometry on activated primary rat CD4+ T cells, AlexaFluor 488 goat anti-human secondary antibody
T5 construct: whole, on cells; also called rat CD134
T5 sequence (looked up): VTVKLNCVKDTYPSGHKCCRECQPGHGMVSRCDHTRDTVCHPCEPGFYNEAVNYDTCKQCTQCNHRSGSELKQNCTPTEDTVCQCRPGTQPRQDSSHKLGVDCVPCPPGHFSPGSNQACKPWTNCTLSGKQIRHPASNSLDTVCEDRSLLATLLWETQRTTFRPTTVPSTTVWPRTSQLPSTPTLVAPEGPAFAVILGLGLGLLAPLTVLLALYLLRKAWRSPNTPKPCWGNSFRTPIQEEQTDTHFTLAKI

human OX40 [12] = biological target: T1, human OX40; assay: flow cytometry, equilibrium binding to human OX40-expressing Jurkat NFkB-luciferase clone 64 cells, mean ± SD of 3 experiments
TNFRSF16 (NGFR) = biological target: T6, TNFRSF16 (NGFR) (human, UniProt P08138 29-427); assay: flow cytometry histogram on HEK293 cells transiently expressing NGFR, AlexaFluor 647 goat anti-human secondary antibody
T6 construct: whole, on cells; also called human NGFR; NGF receptor
T6 sequence (looked up): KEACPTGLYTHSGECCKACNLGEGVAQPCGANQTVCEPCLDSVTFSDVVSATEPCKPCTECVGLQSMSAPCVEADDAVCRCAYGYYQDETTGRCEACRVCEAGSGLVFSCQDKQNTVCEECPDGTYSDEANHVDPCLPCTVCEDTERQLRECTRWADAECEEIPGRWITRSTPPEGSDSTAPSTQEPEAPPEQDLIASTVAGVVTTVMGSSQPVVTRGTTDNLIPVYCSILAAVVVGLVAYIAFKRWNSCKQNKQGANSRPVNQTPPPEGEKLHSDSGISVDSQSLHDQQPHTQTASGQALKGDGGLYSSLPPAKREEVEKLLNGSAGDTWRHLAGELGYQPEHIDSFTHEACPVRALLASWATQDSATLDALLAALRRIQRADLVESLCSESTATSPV

TNFRSF3 (LTβR) = biological target: T7, TNFRSF3 (LTβR) (human, UniProt P36941 31-435); assay: flow cytometry histogram on HEK293 cells transiently expressing LTβR, AlexaFluor 647 goat anti-human secondary antibody
T7 construct: whole, on cells; also called human LTβR; TNFRIII

TNFRSF18 (GITR) = biological target: T8, TNFRSF18 (GITR) (human, UniProt Q9Y5U5 26-241); assay: flow cytometry histogram on HEK293 cells transiently expressing GITR, AlexaFluor 647 goat anti-human secondary antibody
T8 construct: whole, on cells; also called human GITR; AITR
T8 sequence (looked up): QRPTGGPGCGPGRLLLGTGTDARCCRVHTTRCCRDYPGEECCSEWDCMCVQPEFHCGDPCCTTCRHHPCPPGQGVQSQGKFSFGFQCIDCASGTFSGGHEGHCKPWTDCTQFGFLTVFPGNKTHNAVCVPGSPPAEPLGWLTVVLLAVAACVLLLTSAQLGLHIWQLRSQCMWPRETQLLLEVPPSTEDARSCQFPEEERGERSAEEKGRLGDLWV

TNFRSF14 (HVEM) = biological target: T9, TNFRSF14 (HVEM) (human, UniProt Q92956 39-283); assay: flow cytometry histogram on HEK293 cells transiently expressing HVEM, AlexaFluor 647 goat anti-human secondary antibody
T9 construct: whole, on cells; also called human HVEM; TR2
T9 sequence (looked up): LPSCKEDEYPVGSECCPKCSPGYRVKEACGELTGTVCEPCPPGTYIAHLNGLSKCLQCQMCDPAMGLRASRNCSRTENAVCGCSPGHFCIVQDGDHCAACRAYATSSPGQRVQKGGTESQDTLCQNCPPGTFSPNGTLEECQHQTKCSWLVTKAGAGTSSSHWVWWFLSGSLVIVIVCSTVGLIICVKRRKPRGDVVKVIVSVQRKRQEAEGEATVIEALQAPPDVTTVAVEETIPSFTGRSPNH

TNFRSF9 (CD137) = biological target: T10, TNFRSF9 (CD137) (human, UniProt Q07011 24-255); assay: flow cytometry histogram on HEK293 cells transiently expressing CD137, AlexaFluor 647 goat anti-human secondary antibody
T10 construct: whole, on cells; also called human CD137; 4-1BB

human OX40 [13] = biological target: T1, human OX40; assay: flow cytometry on activated primary human CD4+ T cells

T4 sequence (P02745 23-245, chain 1 of 3): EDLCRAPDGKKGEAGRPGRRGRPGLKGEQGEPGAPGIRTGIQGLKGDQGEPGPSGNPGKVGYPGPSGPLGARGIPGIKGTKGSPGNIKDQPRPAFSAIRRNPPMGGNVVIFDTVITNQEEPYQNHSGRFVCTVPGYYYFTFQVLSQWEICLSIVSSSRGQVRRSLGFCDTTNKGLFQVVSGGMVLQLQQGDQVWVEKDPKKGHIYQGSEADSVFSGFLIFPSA
T4 sequence (P02746 28-253, chain 2 of 3, further chain): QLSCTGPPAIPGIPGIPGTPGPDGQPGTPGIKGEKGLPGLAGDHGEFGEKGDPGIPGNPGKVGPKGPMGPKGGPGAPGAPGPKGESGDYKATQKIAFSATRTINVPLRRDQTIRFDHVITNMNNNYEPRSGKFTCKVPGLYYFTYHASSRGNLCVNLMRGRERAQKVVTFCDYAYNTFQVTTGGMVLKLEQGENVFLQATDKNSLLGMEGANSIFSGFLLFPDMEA
T4 sequence (P02747 29-245, chain 3 of 3, further chain): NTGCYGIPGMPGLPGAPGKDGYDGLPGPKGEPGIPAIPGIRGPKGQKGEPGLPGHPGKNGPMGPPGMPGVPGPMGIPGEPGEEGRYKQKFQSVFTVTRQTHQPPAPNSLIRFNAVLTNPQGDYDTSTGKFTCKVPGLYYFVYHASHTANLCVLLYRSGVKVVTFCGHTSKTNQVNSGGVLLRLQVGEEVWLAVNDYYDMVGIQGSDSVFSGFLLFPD
TNFRSF9 (CD137), sequence (Q07011 24-255): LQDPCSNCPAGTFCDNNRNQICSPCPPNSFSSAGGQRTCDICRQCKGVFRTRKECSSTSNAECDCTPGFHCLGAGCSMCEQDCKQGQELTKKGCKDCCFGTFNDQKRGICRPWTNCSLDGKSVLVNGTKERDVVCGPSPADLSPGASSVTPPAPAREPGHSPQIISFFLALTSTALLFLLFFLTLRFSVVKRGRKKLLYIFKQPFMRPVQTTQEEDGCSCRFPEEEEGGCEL
TNFRSF3 (LTβR), sequence (P36941 31-435): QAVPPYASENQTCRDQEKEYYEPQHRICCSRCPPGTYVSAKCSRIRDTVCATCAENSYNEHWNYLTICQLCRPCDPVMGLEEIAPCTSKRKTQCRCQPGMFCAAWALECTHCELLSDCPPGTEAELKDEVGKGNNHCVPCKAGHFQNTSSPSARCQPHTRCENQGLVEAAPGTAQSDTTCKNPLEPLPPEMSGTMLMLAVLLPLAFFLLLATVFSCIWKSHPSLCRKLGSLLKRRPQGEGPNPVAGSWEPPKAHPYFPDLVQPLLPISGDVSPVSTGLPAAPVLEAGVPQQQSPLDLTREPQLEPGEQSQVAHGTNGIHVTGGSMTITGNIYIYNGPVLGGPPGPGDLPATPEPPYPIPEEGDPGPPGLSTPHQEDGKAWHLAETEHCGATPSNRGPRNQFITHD

B1: OX40L IgG4P Fusion Protein (Fc fusion)
chain: [sequence of human IgG4 Fc with S228P (EU numbers) not given]DQDKIEALSSKVQQLERSIGLKDLAMADLEQKVLEMEASTQVSHRYPRIQSIKVQFTEYKKEKGFILTSQKEDEIMKVQNNSVIINCDGFYLISLKGYFSQEVNISLHYQKDEEPLFQLKKVRSVNSLMVASLTYKDKVYLNVTTDNTSLDDFHVNGGELILIHQNPGEFCVL
notes: Hexamer of six identical subunits; expressed in HEK293, purified by Protein A and gel filtration; also called huIgG4PFcTF2OX40L; huIgG4FcPTF2OX40L
CD4+ T cell proliferation EC50, donor 1, plate-based bioassay (human OX40 [1]): 9 pM | CD4+ T cell proliferation EC50, donor 2, plate-based bioassay (human OX40 [1]): 25 pM | CD4+ T cell proliferation EC50, donor 3, plate-based bioassay (human OX40 [1]): 0.5 pM | CD4+ T cell proliferation EC50, donor 4, plate-based bioassay (human OX40 [1]): 22 pM | IFNγ release EC50, donor 1, plate-based bioassay (human OX40 [1]): 12 pM | IFNγ release EC50, donor 2, plate-based bioassay (human OX40 [1]): 81 pM | IFNγ release EC50, donor 3, plate-based bioassay (human OX40 [1]): 58 pM | IFNγ release EC50, donor 4, plate-based bioassay (human OX40 [1]): 110 pM | IL-5 release EC50, donor 1, plate-based bioassay (human OX40 [1]): 30 pM | IL-5 release EC50, donor 2, plate-based bioassay (human OX40 [1]): 87 pM | IL-10 release EC50, donor 1, plate-based bioassay (human OX40 [1]): 22 pM | IL-10 release EC50, donor 2, plate-based bioassay (human OX40 [1]): 49 pM | IL-10 release EC50, donor 3, plate-based bioassay (human OX40 [1]): ~40 pM | IL-10 release EC50, donor 4, plate-based bioassay (human OX40 [1]): 89 pM | TNFα release EC50, donor 1, plate-based bioassay (human OX40 [1]): 18 pM | TNFα release EC50, donor 2, plate-based bioassay (human OX40 [1]): 65 pM | TNFα release EC50, donor 3, plate-based bioassay (human OX40 [1]): ~38 pM | TNFα release EC50, donor 4, plate-based bioassay (human OX40 [1]): 60 pM | 2-cell NFkB-luciferase reporter EC50, experiment 1, Raji (human OX40 [2]): 12 pM | 2-cell NFkB-luciferase reporter EC50, experiment 2, CD32B-expressing HEK (human OX40 [2]): 12 pM | 2-cell NFkB-luciferase reporter EC50, experiment 3, CD32B-expressing HEK (human OX40 [2]): 5.6 pM | 2-cell NFkB-luciferase reporter EC50, experiment 3, Raji (human OX40 [2]): 15 pM | 2-cell NFkB-luciferase reporter EC50, experiment 4, Raji (human OX40 [2]): 15 pM | 2-cell NFkB-luciferase reporter EC50, experiment 5, CD32B-expressing HEK (human OX40 [2]): 112 pM | 2-cell NFkB-luciferase reporter EC50, experiment 6, CD32B-expressing HEK (human OX40 [2]): 104 pM | 2-cell NFkB-luciferase reporter EC50, experiment 7, CD32B-expressing HEK (human OX40 [2]): 102 pM | 2-cell NFkB-luciferase reporter EC50, experiment 8, CD32B-expressing HEK (human OX40 [2]): 117 pM | 2-cell NFkB-luciferase reporter EC50, experiment 9, CD32B-expressing HEK (human OX40 [2]): 134 pM | 2-cell NFkB-luciferase reporter EC50, experiment 10, CD32A-expressing HEK (human OX40 [2]): 35 pM | 2-cell NFkB-luciferase reporter EC50, experiment 11, CD32A-expressing HEK (human OX40 [2]): 25 pM | 2-cell NFkB-luciferase reporter EC50, experiment 12, CD32A-expressing HEK (human OX40 [2]): 33 pM | 2-cell NFkB-luciferase reporter EC50, experiment 13, CD45+ cells, renal tumor (human OX40 [2]): 42 pM | 2-cell NFkB-luciferase reporter EC50, experiment 14, CD45+ cells, renal tumor (human OX40 [2]): 131 pM | 2-cell NFkB-luciferase reporter EC50, experiment 15, CD45+ cells, lung tumor (human OX40 [2]): 37 pM | 2-cell NFkB-luciferase reporter EC50, experiment 16, CD45+ cells, renal tumor (human OX40 [2]): 66 pM | EC50 (read off the curve) (human OX40 [3]): ~10 pM and ~4 pM | EC50 (read off the curve) (human OX40 [4]): ~5 pM and ~6 pM | EC50 (read off the curve) (rhesus monkey OX40 [5]): ~40 pM | EC50 (read off the curve) (cynomolgus monkey OX40 [6]): ~3 pM | EC50 (read off the curve) (cynomolgus monkey OX40 [7]): ~30 pM | EC50 (human OX40 [8]): 6.6 pM | Kd (human OX40 [8]): 3.6 pM | Kd (cynomolgus monkey OX40 [9]): 24.2 pM | Kd (rhesus monkey OX40 [10]): 20.7 pM | binding result [11]: no binding (tested: 26 nM C1q) | binding result (rat OX40): no binding (tested: about 30 nM) | EC50 (human OX40 [12]): 16 pM | Kd (human OX40 [12]): 12 pM | binding result (TNFRSF16 (NGFR)): no binding (tested: 1 µg/mL (single concentration)) | binding result (TNFRSF3 (LTβR)): no binding (tested: 1 µg/mL (single concentration)) | binding result (TNFRSF18 (GITR)): no binding (tested: 1 µg/mL (single concentration)) | binding result (TNFRSF14 (HVEM)): no binding (tested: 1 µg/mL (single concentration)) | binding result (TNFRSF9 (CD137)): no binding (tested: 1 µg/mL (single concentration))

B2: F180A OX40L fusion protein human IgG4P (Fc fusion)
chain: [sequence of human IgG4 Fc with S228P (EU numbers) not given]DQDKIEALSSKVQQLERSIGLKDLAMADLEQKVLEMEASTQVSHRYPRIQSIKVQFTEYKKEKGFILTSQKEDEIMKVQNNSVIINCDGFYLISLKGYFSQEVNISLHYQKDEEPLFQLKKVRSVNSLMVASLTYKDKVYLNVTTDNTSLDDFHVNGGELILIHQNPGEACVL
notes: Control variant of m1; also called huIgG4PFcTF2OX40L F180A; huIgGFcPTF2OX40L F180A
binding result (human OX40 [13]): no binding (tested: about 3e-9 M) | binding result (rat OX40): no binding (tested: about 30 nM)

“And” between values parts separate entries of the source, which are not always exact repeats. Equal values may be shown once.
